Laboratory results taken from patent publication US20230330254A1 (Regeneron, published 2023).
Like-named read-outs stand apart in the source and are kept apart here.

Experiments:
[1] = biological target: T1, full-length human GLP1R on HEK293/CRE-Luc/hGLP1R cells (human, UniProt P43220 24-463); assay: cell-based or functional assay
[2] = biological target: T1, full-length human GLP1R on …; assay: cell-based or functional assay; remark: listed apart in the source
[3] = biological target: T1, full-length human GLP1R on …; assay: cell-based or functional assay; remark: listed apart in the source
[4] = biological target: T2, full-length cynomolgus GLP1R on HEK293/CRE-Luc/mfGLP1R cells (cynomolgus, UniProt F8V479 24-463); assay: cell-based or functional assay
[5] = biological target: T3, full-length human glucagon-like peptide 2 receptor on HEK293/CRE-Luc/hGLP2R cells (human, UniProt O95838 1-553); assay: cell-based or functional assay
T3 sequence (looked up): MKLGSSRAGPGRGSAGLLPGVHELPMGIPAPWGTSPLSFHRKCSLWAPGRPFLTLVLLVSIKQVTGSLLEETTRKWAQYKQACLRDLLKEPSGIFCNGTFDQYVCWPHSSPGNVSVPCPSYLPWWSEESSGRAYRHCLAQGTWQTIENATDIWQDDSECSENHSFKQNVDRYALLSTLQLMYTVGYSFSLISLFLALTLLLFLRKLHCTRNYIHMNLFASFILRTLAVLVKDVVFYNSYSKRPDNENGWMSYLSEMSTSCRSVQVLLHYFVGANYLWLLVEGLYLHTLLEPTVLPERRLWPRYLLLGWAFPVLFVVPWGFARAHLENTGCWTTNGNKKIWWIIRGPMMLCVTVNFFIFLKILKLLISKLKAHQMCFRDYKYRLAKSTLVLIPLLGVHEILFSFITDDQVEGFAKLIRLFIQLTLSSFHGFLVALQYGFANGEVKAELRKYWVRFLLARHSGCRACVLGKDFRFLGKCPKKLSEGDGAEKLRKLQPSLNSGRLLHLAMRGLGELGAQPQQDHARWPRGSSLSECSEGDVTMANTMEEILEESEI

[6] = biological target: full-length human glucagon receptor on HEK293/CRE-Luc/hGCGR cells (human, UniProt P47871 26-477); assay: cell-based or functional assay
[7] = biological target: T4, full-length human gastric inhibitory polypeptide receptor on HEK293/CRE-Luc/hGIPR cells (human, UniProt P48546 22-466); assay: cell-based or functional assay
T4 sequence (looked up): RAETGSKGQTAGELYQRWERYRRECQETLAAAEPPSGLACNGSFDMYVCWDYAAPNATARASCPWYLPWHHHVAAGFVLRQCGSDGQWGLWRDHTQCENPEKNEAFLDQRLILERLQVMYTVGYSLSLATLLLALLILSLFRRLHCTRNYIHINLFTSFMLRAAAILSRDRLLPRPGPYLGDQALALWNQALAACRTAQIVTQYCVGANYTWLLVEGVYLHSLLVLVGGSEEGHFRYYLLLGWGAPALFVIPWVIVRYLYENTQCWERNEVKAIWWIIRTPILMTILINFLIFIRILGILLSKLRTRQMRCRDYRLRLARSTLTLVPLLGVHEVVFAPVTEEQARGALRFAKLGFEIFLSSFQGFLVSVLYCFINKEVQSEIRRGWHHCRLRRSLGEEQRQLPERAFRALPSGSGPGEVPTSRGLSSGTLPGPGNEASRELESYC

[8] = biological target: T1, full-length human GLP1R on …; assay: flow cytometry, hGLP1R cells
[9] = biological target: T2, full-length cynomolgus GLP1R on …; assay: flow cytometry, mfGLP1R cells
[10] = biological target: T5, N-terminal ectodomain of human GLP1R expressed with a myc-myc hexahistidine tag (human, UniProt P43220 24-145, limits assumed); assay: SPR, captured via anti-hFc, 25 C
T5 construct: extracellular domain; also called hGLP1R-MMH; hGLP1R.mmh

Chain of UniProt P47871 (P47871 26-477): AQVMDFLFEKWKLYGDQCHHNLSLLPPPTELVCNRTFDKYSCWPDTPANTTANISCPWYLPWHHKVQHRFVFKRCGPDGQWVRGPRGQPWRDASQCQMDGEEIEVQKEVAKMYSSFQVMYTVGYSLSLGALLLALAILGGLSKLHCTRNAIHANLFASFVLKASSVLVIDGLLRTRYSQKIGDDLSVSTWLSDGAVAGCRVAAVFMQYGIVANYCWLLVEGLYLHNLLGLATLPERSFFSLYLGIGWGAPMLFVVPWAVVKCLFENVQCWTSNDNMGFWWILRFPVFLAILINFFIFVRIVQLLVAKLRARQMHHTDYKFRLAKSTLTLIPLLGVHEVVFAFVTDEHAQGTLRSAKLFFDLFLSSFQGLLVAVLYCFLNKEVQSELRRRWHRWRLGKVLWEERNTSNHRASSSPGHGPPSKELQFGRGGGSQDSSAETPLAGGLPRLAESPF

B1: REGN5619-M3190 (antibody, human IgG4 S228P, kappa)
heavy: EVQLVESGGGLVQPGGSLKLSCAASGFTFSGSAMHWVRQASGKGLEWVGRITSKANSYATAYDASVKGRFTISRDDSKNTAYLQMNSLKTEDTAVYYCTRQRFLEFLFLDYWGQGTLVTVSSASTKGPSVFPLAPCSRSTSESTAALGCLVKDYFPEPVTVSWNSGALTSGVHTFPAVLQSSGLYSLSSVVTVPSSSLGTKTYTCNVDHKPSNTKVDKRV[human IgG4 Fc with S228P (EU numbers) left out here]
light: [about 100 residues left out here][about 120 residues left out here]
modifications: linker-payload M3190 (LP11) on Gln 3 of the N-terminal Q-tag LLQGSG
notes: antibody-tethered drug conjugate; also called REGN5619 ATDC; Anti-GLP1R mAB2 LP11
CRE-luc EC50 [1]: 0.0273 nM | CRE-luc Relative Potency (% P8 EC50) [1]: 59.5% | CRE-luc Relative Signal:Noise (% P8) [1]: 158% | CRE-luc S/N [1]: 102 fold | CRE-luc EC50 of ATDC, 0 nM unconjugated mAb [2]: 0.03 nM | CRE-luc EC50 of ATDC, +0.01 nM unconjugated anti-GLP1R mAb [2]: 0.024 nM | CRE-luc EC50 of ATDC, +0.1 nM unconjugated anti-GLP1R mAb [2]: 0.027 nM | CRE-luc EC50 of ATDC, +1 nM unconjugated anti-GLP1R mAb [2]: 0.029 nM | CRE-luc EC50 of ATDC, +10 nM unconjugated anti-GLP1R mAb [2]: 0.044 nM | CRE-luc EC50 of ATDC, +100 nM unconjugated anti-GLP1R mAb [2]: 0.12 nM | EC50 fold-change vs ATDC alone, 0 nM unconjugated mAb [2]: 1 fold | EC50 fold-change vs ATDC alone, +0.01 nM unconjugated mAb [2]: 0.8 fold | EC50 fold-change vs ATDC alone, +0.1 nM unconjugated mAb [2]: 0.9 fold | EC50 fold-change vs ATDC alone, +1 nM unconjugated mAb [2]: 1 fold | EC50 fold-change vs ATDC alone, +10 nM unconjugated mAb [2]: 1.5 fold | EC50 fold-change vs ATDC alone, +100 nM unconjugated mAb [2]: 4 fold | CRE-luc EC50 [3]: 0.0412 nM | CRE-luc EC50 [4]: 0.0373 nM | CRE-luc EC50 [5]: > 200 nM | CRE-luc EC50 [6]: > 200 nM | CRE-luc EC50 [7]: > 200 nM | EC50 [8]: 3.18 nM | Flow S/N [8]: 173 fold | EC50 [9]: 2.28 nM | Flow S/N [9]: 128 fold | 90 nM hGLP1R.mmh Bound (RU) [10]: 35.3 RU | Kd [10]: 175 nM | koff [10]: 0.0269 s⁻¹ | kon [10]: 154000 M⁻¹ s⁻¹ | t1/2 [10]: 24 s

B2: Anti-GLP1R mAB6 conjugated to LP11 (antibody, human IgG4 S228P, kappa)
heavy: LLQGSGEVQLVESGGGLVQPGGSLKLSCAASGFTFSGSAMHWVRQASGKGLEWVGRITSKANSYATAYDASVKGRFTISRDDSKNTAYLQMNSLKTEDTAVYYCTRQRFLEFLFLDYWGQGTLVTVSSASTKGPSVFPLAPCSRSTSESTAALGCLVKDYFPEPVTVSWNSGALTSGVHTFPAVLQSSGLYSLSSVVTVPSSSLGTKTYTCNVDHKPSNTKVDKRV[human IgG4 Fc with S228P (EU numbers) left out here]
light: [about 100 residues left out here][about 120 residues left out here]
modifications: linker-payload LP11 (M3190) on Gln 3 of the N-terminal Q-tag LLQGSG
CRE-luc EC50 [1]: 0.112 nM | CRE-luc Relative Potency (% P8 EC50) [1]: 14.5% | CRE-luc Relative Signal:Noise (% P8) [1]: 97.1% | CRE-luc S/N [1]: 62.5 fold

B3: REGN5619 (antibody, human IgG4 S228P, kappa)
heavy: EVQLVESGGGLVQPGGSLKLSCAASGFTFSGSAMHWVRQASGKGLEWVGRITSKANSYATAYDASVKGRFTISRDDSKNTAYLQMNSLKTEDTAVYYCTRQRFLEFLFLDYWGQGTLVTVSSASTKGPSVFPLAPCSRSTSESTAALGCLVKDYFPEPVTVSWNSGALTSGVHTFPAVLQSSGLYSLSSVVTVPSSSLGTKTYTCNVDHKPSNTKVDKRV[human IgG4 Fc with S228P (EU numbers) left out here]
light: [about 100 residues left out here][about 120 residues left out here]
notes: IgG4; Q-tag on light chain N-terminus; also called mAb 2; REGN5619 unconjugated Ab
EC50 [8]: 5.68 nM | Flow S/N [8]: 240 fold | EC50 [9]: 2.19 nM | Flow S/N [9]: 155 fold
